# Measured values from PMC4336329 (PLoS ONE, 2015).
# In all, about 310,000 compounds went through this assay and about 2,200 (0.71%) showed an effect of 50% or more. The effect is printed as a negative number. Some of the results follow.
# Biological target: human ether-à-go-go-related gene (hERG) potassium channel (human, UniProt Q12809)
# Assay: primary screen, population patch clamp on CHO cells stably expressing hERG
# Sequence of human ether-à-go-go-related gene (hERG) potassium channel (Q12809 whole entry, looked up): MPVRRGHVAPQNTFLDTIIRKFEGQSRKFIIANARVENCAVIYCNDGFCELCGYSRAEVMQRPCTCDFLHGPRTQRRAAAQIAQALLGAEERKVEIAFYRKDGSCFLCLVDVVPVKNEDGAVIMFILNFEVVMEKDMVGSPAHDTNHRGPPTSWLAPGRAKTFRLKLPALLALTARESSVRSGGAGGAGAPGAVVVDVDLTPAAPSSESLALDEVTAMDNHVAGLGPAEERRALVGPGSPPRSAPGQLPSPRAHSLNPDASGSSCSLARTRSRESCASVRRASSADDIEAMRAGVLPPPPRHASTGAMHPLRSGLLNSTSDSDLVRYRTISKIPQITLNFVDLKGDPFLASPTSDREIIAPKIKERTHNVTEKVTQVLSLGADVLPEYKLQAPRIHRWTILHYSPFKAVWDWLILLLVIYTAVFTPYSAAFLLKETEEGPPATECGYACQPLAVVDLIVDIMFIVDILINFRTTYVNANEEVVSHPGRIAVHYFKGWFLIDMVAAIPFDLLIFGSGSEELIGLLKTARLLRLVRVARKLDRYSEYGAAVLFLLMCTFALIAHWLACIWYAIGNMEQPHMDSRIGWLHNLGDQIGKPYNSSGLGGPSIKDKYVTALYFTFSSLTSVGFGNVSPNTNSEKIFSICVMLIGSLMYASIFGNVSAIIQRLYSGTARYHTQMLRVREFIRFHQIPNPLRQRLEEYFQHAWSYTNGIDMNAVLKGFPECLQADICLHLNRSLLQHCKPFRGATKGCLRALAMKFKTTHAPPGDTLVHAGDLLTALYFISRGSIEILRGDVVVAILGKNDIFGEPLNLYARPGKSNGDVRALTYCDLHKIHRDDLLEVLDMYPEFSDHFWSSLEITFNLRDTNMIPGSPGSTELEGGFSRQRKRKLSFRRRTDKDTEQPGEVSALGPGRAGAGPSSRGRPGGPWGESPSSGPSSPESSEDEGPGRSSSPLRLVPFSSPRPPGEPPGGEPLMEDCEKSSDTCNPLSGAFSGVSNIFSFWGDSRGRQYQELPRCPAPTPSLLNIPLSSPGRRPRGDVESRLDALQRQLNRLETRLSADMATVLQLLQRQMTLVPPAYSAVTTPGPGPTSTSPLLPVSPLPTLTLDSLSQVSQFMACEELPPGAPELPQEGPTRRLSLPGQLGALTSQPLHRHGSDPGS
row,Compound,"hERG current change (%, negative = inhibition) at 1uM"
1,Cc1cc(C)c(NC(=O)COC(=O)c2c(C)noc2C)c(Cl)c1,6.85%
2,CN(Cc1nc(-c2ccc(Cl)cc2)no1)C(=O)c1ccco1,5.17%
3,O=C(NCc1cc(C(F)(F)F)cc(C(F)(F)F)c1)C1CC(c2cccc(F)c2)=NO1 (centres unmarked),2.14%
4,COCCNC(=O)C1CC(c2ccc(F)cc2)=NO1 (centres unmarked),14%
5,O=C1C(Nc2ccccc2)=C(N2CCCCC2)C(=O)c2ccccc21,5.01%
6,CC(C)c1ccc(/C=N/NC(=O)c2cc(-c3cccc([N+](=O)[O-])c3)n[nH]2)cc1,11.5%
7,N#CC1(NC(=O)COc2cccnc2[N+](=O)[O-])CCCCC1,10.6%
8,Cc1ccc(NC(=O)C2CCN(S(=O)(=O)c3ccc4c(c3)C(C)(C)C(=O)N4C)CC2)c(C)c1,13%
9,Cc1nc(C)c(C(=O)N2CCCC(CCC(=O)NCc3ccc(F)c(F)c3)C2)s1 (centres unmarked),7.25%
10,Cn1c2ccccc2c2cnn(CC(=O)Nc3ccc(F)cc3F)c(=O)c21,7.03%
11,Cc1nc2nc(SCC(=O)N3CCOCC3)nn2c(C)c1Cc1c(F)cccc1Cl,3.11%
12,Cc1cc(C)cc(N(CC(=O)N2CC=C(c3ccccc3)CC2)S(=O)(=O)c2c(C)noc2C)c1,9.21%
13,COc1ccc([N+](=O)[O-])cc1NC1CCCCC1.O=C(O)C(=O)O,7.39%
14,Cc1ccc(NC(=O)c2ccc3ccccc3n2)cc1S(=O)(=O)N(C)C,9.94%
15,CN(C)/C=C/C(=O)c1ccc(OCCN(C)c2ccccn2)cc1,9.93%
16,CC(=O)Nc1ccc(NC(=O)C(C)OC(=O)c2ccccc2C(=O)c2ccc(Cl)c([N+](=O)[O-])c2)cc1 (centres unmarked),2.9%
17,COc1cc(NC(=O)C2CCN(S(=O)(=O)c3cccs3)CC2)cc(OC)c1,10.9%
18,O=C(Cc1ccccc1F)NC1CCCc2ccccc21 (centres unmarked),17.9%
19,Cn1c(CCN2CCCCC2)nc2cc(NC(=O)COc3ccc(Cl)cc3)ccc21,-89.6%
20,Cc1nc2ccccc2cc1C(=O)NCc1ccccc1,11%
21,O=C(N/N=C/c1ccccn1)c1c[nH]c2ccccc12,17.1%
22,CC1C(=O)Nc2ccc(S(=O)(=O)NCc3ccc(Cl)cc3)cc2NC1=O (centres unmarked),18.7%
23,O=C(Nc1ccc(Cc2ccncc2)cc1)c1ccco1,-0.641%
